The supplement of paper PMC3334620
Whole data set: some 33,000 sequences, median “E-score (-0.5 to 0.5)” near -0.035, cut for the highest 2% near 0.34. The list shows a part of the results.

biological target: T1, Mot3 (UniProt P54785); test: PBM E-score (8-mer binding enrichment) (E-score (-0.5 to 0.5)); higher = stronger / more preferred TF binding; most listed sequences are background and not binding sites; settings: protein concentration: 200 nM; construct: GST-full length
T1 sequence: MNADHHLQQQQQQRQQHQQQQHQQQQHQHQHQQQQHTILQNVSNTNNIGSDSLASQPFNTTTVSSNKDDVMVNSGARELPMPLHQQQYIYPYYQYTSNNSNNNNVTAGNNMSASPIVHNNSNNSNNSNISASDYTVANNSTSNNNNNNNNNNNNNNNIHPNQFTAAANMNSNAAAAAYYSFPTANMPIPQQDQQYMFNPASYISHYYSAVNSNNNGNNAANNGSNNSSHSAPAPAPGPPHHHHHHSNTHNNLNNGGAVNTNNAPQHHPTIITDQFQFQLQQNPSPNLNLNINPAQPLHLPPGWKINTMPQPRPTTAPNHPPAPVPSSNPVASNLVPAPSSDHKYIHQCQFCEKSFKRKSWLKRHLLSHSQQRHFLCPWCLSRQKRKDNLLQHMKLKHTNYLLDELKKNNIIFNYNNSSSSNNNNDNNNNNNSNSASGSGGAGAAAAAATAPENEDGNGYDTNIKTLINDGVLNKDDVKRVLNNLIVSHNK
In short: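 E-scores (a modified Wilcoxon-Mann-Whitney statistic) were assigned by the Universal PBM Analysis Suite to every ungapped eight-base word pooled with its reverse complement. The input came from universal all-10-mer Agilent arrays made double-stranded by primer extension and probed with GST-tagged yeast transcription factors at about 100-200 nM. Fluorescent anti-GST detected bound protein, and masliner normalised the scans.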

Point of comparison: GCCAGAAA, “PBM E-score” value -0.0567. Against it:
- AAAGACGT — higher, 0.0165
- CATGGTAG — higher, 0.0641
- GATACAAA — higher, 0.113
- CAGCGGGG — lower, -0.285
- ATCCTAAG — lower, -0.178
- ACAGCAAC — higher, 0.0245
- GTTTCCTA — higher, 0.411
- CATTGTAC — higher, 0.193
- CGTATCAC — higher, 0.0157
- AAAACGGA — higher, 0.0813
- AGTATACA — higher, 0.192
- ACTGTTTG — higher, 0.193
- GACTTAAA — higher, -0.0284
- ACTCTCTC — lower, -0.127
- ATGCGTTG — higher, 0.0859
- GCATCCAC — lower, -0.101
- GGTTTAAC — higher, 0.178
- CTGGGAAC — lower, -0.0681
- ACTTTGGA — lower, -0.0655
- CTTAAGCC — lower, -0.114
- CCCAACGC — lower, -0.095
- ACTTCACA — higher, 0.177
- CAACATAC — higher, 0.179
- GAGTGCGA — lower, -0.152
- AATTGTAC — higher, 0.144
- ACGGCCCG — lower, -0.171
- CAGAGCAG — higher, -0.0143
- ACAAGAAT — higher, 0.188
- GACACCTA — higher, 0.0394
- AATCTACC — higher, 0.0926
- GTCTGTTA — higher, 0.178
- GTTCATAA — higher, -0.0429
- CTGTGGTA — higher, -0.0245
- AACCTTAC — higher, 0.0962
- ACTGTCCG — higher, -0.0105
- TACAACAA — higher, 0.301
- CGCTGAGA — lower, -0.199
- TGCGTACA — higher, 0.257
- CTATGAAA — lower, -0.162
- ATATAACA — higher, 0.295
- CCATATAC — higher, 0.104
- CAGCAGTC — lower, -0.293
- ACACTTCT — higher, 0.133
- AGGGCGGC — lower, -0.112
- ATTGATAG — higher, 0.112
- AGATAATC — higher, -0.0261
- GATCCAGA — higher, -0.0452
- CAGCGATA — lower, -0.0991
- CTCTGGTC — lower, -0.215
- AAGGCAGA — higher, 0.0903
- GTCTCCAC — lower, -0.115
- ACGTACTC — higher, 0.102
- CCCTATAA — lower, -0.151
- TCCATAAA — lower, -0.17
- CGATCCTC — lower, -0.175
- AATGGTTA — higher, 0.15
- CCACGCCG — lower, -0.206
- AGCCATAT — lower, -0.215
- ATCGTGCA — higher, 0.122
- ATCGAGAC — lower, -0.144
- CGTGTGAA — higher, 0.309
- GCGATCTA — lower, -0.138
- CCAAGGAG — lower, -0.129
- CAGGTTCA — higher, 0.136
- CTGGACTA — lower, -0.109
- CTTCGCGC — higher, -0.0309
- CAACACGG — higher, 0.302
- ACGGACAC — higher, 0.0821
- CTCCTCGA — lower, -0.19
- CCATCGAG — higher, 0.0666
- TATTAATA — higher, 0.151
- CCGCTCAG — higher, 0.0688
- CCAACTAC — higher, 0.0858
- AAGATTCA — higher, 0.124
- AAGACTAT — higher, -0.00527
- CAGCCTAA — higher, 0.00627
- AAGGGACT — lower, -0.0592
- GACACAGA — higher, -0.043
- CGGGTAAA — higher, 0.151
- AGCGCGGC — higher, -0.0474
- CCCGGGTC — lower, -0.231
- ATTTGGTA — higher, -0.0233
- CGATTAAA — higher, 0.0951
- GATCTGAC — lower, -0.0696
- CTACTCTA — higher, -0.00664
- ATTTTTGA — higher, 0.0121
- AAGTGGTA — higher, 0.0297
- ACCGAGGG — lower, -0.287
- CCTCACCA — lower, -0.0744
- AAGAAATG — higher, 0.0181
- AGGGCTCG — lower, -0.209
- ATATGCAA — lower, -0.0574
- ATATTATG — higher, 0.196
- GTCGCTAA — higher, -0.0236
- ACTTAATG — higher, 0.0209
- AACTATTA — higher, 0.124
- CCAACGAG — lower, -0.157
- CTGGTCCC — lower, -0.265
- CTATTGAG — lower, -0.129
- GATTAATC — higher, -0.0124
- AGCGTTCC — higher, 0.181
- CATCCTCG — higher, 0.00911
- AATCCCAA — lower, -0.0822
- ATCAAACA — higher, 0.0614
- ATATTGAT — lower, -0.152
- CCTCGTTC — lower, -0.11
- TATTACGA — higher, 0.209
- ACGCATAT — higher, 0.174
- ACTGGCAT — lower, -0.188
- CAATTATG — higher, 0.135
- CGGGGCCA — lower, -0.416
- CACACCTA — higher, 0.0255
- ACGGAGAT — lower, -0.0691
- AAATTAAC — higher, 0.128
- AGCCGATG — lower, -0.228
- ATTAGACA — higher, 0.027
- GGGACCAC — lower, -0.274
- AGGTACTG — higher, 0.258
- TTTCGAAA — higher, 0.00655
- ACCGAATC — higher, -0.00094
- ACAAGCGC — higher, 5e-05
- CTGCCACC — lower, -0.184
- ACGCATAG — higher, 0.147
- CTCGGAAC — lower, -0.185
- ATCGTGTA — higher, 0.39
- CTGTTCTA — higher, 0.0629
- CATGATAA — higher, 0.277
- CGGCTCAG — lower, -0.217
- TGTAGACA — higher, 0.278
- CAGTCGCA — lower, -0.118
- ACGCATCT — higher, 0.106
- GCATGTCC — higher, 0.0392
- ACGAACGA — higher, 0.0589
- AGAATATC — lower, -0.096
- AGGAGAAT — lower, -0.161
- AGTTGATC — higher, -0.00973
- ACTGCCAA — higher, -0.0121
- AACCCCTG — lower, -0.163
- TTCGCAAA — higher, 0.0552
- GCAACGAA — higher, 0.177
- ATCTAAAC — higher, -0.0106
- AAGGTCTC — lower, -0.0648
- AACTGAGC — lower, -0.348
- CCGATAGG — higher, -0.0164
- CGTCATGC — lower, -0.095
- ATCAATGG — lower, -0.263
- AGACGTGA — higher, 0.0416
- AGACATGG — higher, 0.139
- GTTTGTGA — higher, 0.0357
- CATGCGCC — higher, 0.0452
- CCCAGCGC — higher, -0.0444
- AATTGCAA — higher, -0.0353
- AATTGATG — higher, 0.182
- ATGACGTC — lower, -0.114
- AGTTCATG — higher, -0.00682
- CAATCAGC — lower, -0.109
- AACAGGTT — higher, 0.0771
- GAGAGAGC — lower, -0.267
- CGGCCGAA — lower, -0.249
- CTCAAGCC — lower, -0.236
- CGGTGGAG — lower, -0.26
- GGGATCAA — higher, -0.0523
- GACGGACA — lower, -0.146
- AGCCTTAT — higher, -0.0161
- CACAACGC — higher, 0.171
- CCTCCCAG — higher, -0.03
- ATTATTTC — higher, 0.183
- AGGCCGTG — higher, 0.0145
- AAGTAATT — higher, 0.201
- GGTAGCAC — lower, -0.16
- GTTTCGGA — higher, 0.0513
